Results taken from the antibiotic and cytotoxicity screens of Wong et al. (2023).
The other results are listed elsewhere or left out.

Legend:
HSkMC = human skeletal muscle cells; assay: cytotoxicity call (relative viability < 0.9); conditions: 10 µM
HepG2 = assay: cytotoxicity call (relative viability < 0.9); conditions: 10 µM
S. aureus RN4220 = assay: growth inhibition call (relative growth <= 0.2); conditions: 50 µM

| Structure (SMILES) | cytotoxicity call (HSkMC) | cytotoxicity call (HepG2) | growth inhibition call (S. aureus RN4220) |
| --- | --- | --- | --- |
| C[C@H]1CN([C@@H](C)CO)C(=O)c2ccccc2-c2ccccc2CO[C@@H]1CN(C)C(=O)c1cc(Cl)cc(Cl)c1 | inactive | inactive | inactive |
| NCc1ccc2nsnc2c1 | inactive | inactive | inactive |
| C[C@@H]1CN([C@@H](C)CO)C(=O)c2cc(NS(=O)(=O)c3cn(C)cn3)ccc2O[C@H]1CN(C)C(=O)Nc1ccc2c(c1)OCO2 | inactive | inactive | inactive |
| C[C@@H]1CCCCO[C@H](CN(C)Cc2ccc3c(c2)OCO3)[C@H](C)CN([C@H](C)CO)C(=O)c2cc(NC(=O)CCC(F)(F)F)ccc2O1 | inactive | inactive | inactive |
| Cc1ccc(S(=O)(=O)Nc2ccc3c(c2)CC(=O)N([C@H](C)CO)C[C@H](C)[C@@H](CN(C)C(=O)NC(C)C)O3)cc1 | inactive | inactive | inactive |
| O=C(O)CCCCCCC(=O)Nc1ccc([C@H]2O[C@@H](CSc3nc(-c4ccccc4)c(-c4ccccc4)o3)C[C@@H](c3ccc(CO)cc3)O2)cc1 | inactive | inactive | inactive |
| CN1C[C@@H](CO)Oc2ccccc21 | inactive | inactive | inactive |
| COc1ccc(NC(=O)Nc2ccc3c(c2)C(=O)N([C@H](C)CO)C[C@@H](C)[C@@H](CN(C)CC2CCCCC2)OCCCC[C@H](C)O3)cc1 | inactive | active | inactive |
| CC(C)NC(=O)Nc1ccc2c(c1)C(=O)N([C@H](C)CO)C[C@@H](C)[C@@H](CN(C)Cc1ccc(C(F)(F)F)cc1)OCCCC[C@@H](C)O2 | inactive | inactive | inactive |
| C[C@H]1CN([C@@H](C)CO)C(=O)c2cc(NC(=O)Nc3ccc4c(c3)OCO4)ccc2O[C@@H]1CN(C)Cc1ccc(Oc2ccccc2)cc1 | inactive | active | inactive |
| CCCNC(=O)N(C)C[C@@H]1Oc2cc(-c3ccc(C)cc3)ccc2S(=O)(=O)N([C@@H](C)CO)C[C@@H]1C | inactive | inactive | inactive |
| COc1ccc(-c2oc3cc(OC)c(OC)c(OC)c3c(=O)c2OC)cc1 | inactive | inactive | inactive |
| COc1ccc(S(=O)(=O)N(C)C[C@@H]2Oc3ccc(NC(=O)Nc4c(C)noc4C)cc3CC(=O)N([C@@H](C)CO)C[C@H]2C)cc1 | inactive | inactive | inactive |
| Nc1nc2nc[nH]c2c(=S)[nH]1 | inactive | active | inactive |
| O=C(N/N=C/[C@H](O)[C@@H](O)[C@@H](O)[C@H](O)C(=O)O)c1ccccn1 | inactive | inactive | inactive |
| C[C@@H]1CN([C@H](C)CO)C(=O)c2cc(NC(=O)c3ccccc3)ccc2O[C@@H](C)CCCCO[C@H]1CN(C)Cc1ccc(C(F)(F)F)cc1 | inactive | inactive | inactive |
| COc1ccc(CN(C)C[C@H]2OCCCC[C@H](C)Oc3ccc(NS(=O)(=O)c4c(C)noc4C)cc3C(=O)N([C@H](C)CO)C[C@@H]2C)cc1 | inactive | inactive | inactive |
| C[C@@H]1CN([C@@H](C)CO)C(=O)c2cc(NC(=O)Nc3cccc4ccccc34)ccc2O[C@@H](C)CCCCO[C@@H]1CN(C)C(=O)c1ccccc1 | inactive | inactive | inactive |
| C[C@@H]1CN([C@@H](C)CO)C(=O)c2cc(NS(=O)(=O)c3ccc(Cl)cc3)ccc2O[C@@H]1CN(C)Cc1ccc(Oc2ccccc2)cc1 | active | active | inactive |
| CC(C)NC(=O)Nc1ccc2c(c1)C(=O)N([C@@H](C)CO)C[C@@H](C)[C@@H](CN(C)C(=O)Nc1ccc3c(c1)OCO3)O2 | inactive | inactive | inactive |
| C[C@H]1CN([C@@H](C)CO)C(=O)c2cc(NC(=O)C3CC3)ccc2O[C@H]1CN(C)Cc1ccc(-c2ccccc2)cc1 | inactive | inactive | inactive |
| C[C@H](CO)N1C[C@H](C)[C@@H](CN(C)C(=O)Nc2cccc3ccccc23)Oc2ccc(NS(=O)(=O)c3ccc(F)cc3)cc2CC1=O | inactive | inactive | inactive |
| O=c1[nH]c(=S)[nH]nc1O | inactive | inactive | inactive |
| C[C@]12CC[C@@H]3c4ccc(O)cc4C[C@@H](CCCCCCCCC[S@@](=O)CCCC(F)(F)C(F)(F)F)[C@H]3[C@@H]1CC[C@@H]2O | inactive | inactive | inactive |
| C[C@H]1CN([C@@H](C)CO)S(=O)(=O)c2ccc(C#CC3(O)CCCC3)cc2O[C@@H]1CN(C)C(=O)c1cccnc1 | inactive | inactive | inactive |
| CN(C(=O)CN(CCO)CC(=O)N(C)C(C)(C)Cc1ccccc1)C(C)(C)Cc1ccccc1 | inactive | active | active |
